Laboratory results from publication PMC4336329 (PLoS ONE, 2015).
Hit rate of the full screen: of about 310,000 compounds, about 14,000 (4.5%) showed an effect of 50% or more. Effects have a minus sign here. This is one part of the list.

Each molecule was assayed against human ether-à-go-go-related gene (hERG) potassium channel (human, UniProt Q12809) (assay: primary screen, population patch clamp on CHO cells stably expressing hERG).
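Also: peak tail current of the secondary pulse compared with the same well before compound.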

human ether-à-go-go-related gene (hERG) potassium channel, sequence (Q12809 whole entry, looked up): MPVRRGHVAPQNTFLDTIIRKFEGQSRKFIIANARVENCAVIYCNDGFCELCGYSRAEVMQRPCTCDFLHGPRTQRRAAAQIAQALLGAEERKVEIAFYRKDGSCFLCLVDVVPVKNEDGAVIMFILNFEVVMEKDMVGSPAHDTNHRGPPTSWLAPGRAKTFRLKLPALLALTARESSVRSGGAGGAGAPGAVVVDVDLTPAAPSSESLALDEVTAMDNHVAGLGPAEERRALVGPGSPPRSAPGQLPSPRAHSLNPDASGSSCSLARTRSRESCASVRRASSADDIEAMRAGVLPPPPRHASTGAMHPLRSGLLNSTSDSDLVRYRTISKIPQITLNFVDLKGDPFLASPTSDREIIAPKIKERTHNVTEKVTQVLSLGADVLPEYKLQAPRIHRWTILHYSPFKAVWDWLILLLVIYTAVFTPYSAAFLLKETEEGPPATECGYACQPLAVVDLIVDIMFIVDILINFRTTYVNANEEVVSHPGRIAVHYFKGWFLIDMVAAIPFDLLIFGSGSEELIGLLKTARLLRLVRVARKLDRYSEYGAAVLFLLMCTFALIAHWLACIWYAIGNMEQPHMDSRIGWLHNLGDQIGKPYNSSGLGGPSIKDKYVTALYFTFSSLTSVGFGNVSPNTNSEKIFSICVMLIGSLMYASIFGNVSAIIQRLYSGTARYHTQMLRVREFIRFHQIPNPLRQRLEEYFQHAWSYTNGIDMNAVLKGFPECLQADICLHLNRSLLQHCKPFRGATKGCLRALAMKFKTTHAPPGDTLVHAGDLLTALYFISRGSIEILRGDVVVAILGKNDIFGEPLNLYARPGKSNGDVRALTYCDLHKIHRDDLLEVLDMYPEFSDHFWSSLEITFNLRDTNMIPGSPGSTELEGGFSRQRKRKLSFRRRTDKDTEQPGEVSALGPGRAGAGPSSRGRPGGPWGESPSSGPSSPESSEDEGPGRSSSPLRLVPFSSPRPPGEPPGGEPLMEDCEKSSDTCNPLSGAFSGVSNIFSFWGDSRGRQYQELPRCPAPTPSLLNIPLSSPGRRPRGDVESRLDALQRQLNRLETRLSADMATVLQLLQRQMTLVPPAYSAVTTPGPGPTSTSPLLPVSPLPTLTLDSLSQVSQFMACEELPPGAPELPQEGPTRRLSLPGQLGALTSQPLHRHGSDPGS

SMILES	hERG current change (%, negative = inhibition) at 10uM [%]
Cc1ccc(N2CN(Cc3cccnc3)CNC2=S)cc1	4.71
COCCN(CCOC)C(=O)CN1C(=O)NC2(CCCc3sccc32)C1=O (centres unmarked)	20.6
COc1ccccc1CNC(=O)CN(C)S(=O)(=O)c1cccc2cccnc12	-3.12
CCSc1nnc2c(n1)OC(c1ccc(C(=O)O)cc1)N(C(C)=O)c1ccccc1-2 (centres unmarked)	2.28
S=C1NCCc2ccccc2C1c1ccccc1 (centres unmarked)	-14.5
COC(=O)CC1C(=O)NCCN1C(=O)CSc1nc2ccccc2s1 (centres unmarked)	20.6
COCCn1c(=N)c(C(=O)NCc2ccco2)cc2c(=O)n3ccccc3nc21	-78.1
O=S(=O)(NCc1csc(-c2cccs2)n1)c1cccc(C(F)(F)F)c1	-22
CCC(=O)Nc1cc(C(=O)OCC(=O)c2ccccc2Cl)ccc1C	14.8
Cc1cc(C)cc(OCC(=O)NNC(=O)c2ccccn2)c1	-34.6
O=C(COc1ccc(Cl)cc1)NC(=S)Nc1ccccc1N1CCOCC1	17.4
O=C(c1ccc(F)cc1Cl)N1CCN(CCc2ccccc2)CC1	-44
CNCc1ccccc1Sc1cccc(O)c1.O=C(O)/C=C\C(=O)O	7.03
Cc1ccc(-n2ncc3c2CCCC3NC(=O)CCCN2CCCC2=O)cc1C (centres unmarked)	-7.79
COCc1ccc(C(=O)N2CCCC(Nc3ccc4c(c3)OCCO4)C2)o1 (centres unmarked)	11.2
COC(=O)c1c(NC(=O)c2cccs2)sc2c1CCC(C)C2 (centres unmarked)	6.28
CC1(C)CC(NC(=O)Cc2ccccc2)CC(C)(C)N1.Cl	14.8
O=C(Cc1c(F)cccc1Cl)NCC(=O)OCc1ccccc1	0.129
CCOC(=O)/C(C#N)=C\c1ccc2c(c1)OCO2	1
Cc1cccc(NC(=S)NC2CC3CCC(C2)N3Cc2ccco2)c1C (centres unmarked)	-14.6
O=C(Nc1ccccc1F)Nc1ccccc1OC(F)F	-0.73
COc1cc(NC(=O)[C@@H](NC(=O)N2CCn3c2nc2ccccc23)C(C)C)cc(OC)c1	18.9
N#Cc1nc(COc2ccccc2)oc1N1CCCCCC1	-23.5

SMILES	hERG current change (%, negative = inhibition) at 10uM [%]
COC(=O)/C=C/COc1ccccc1[N+](=O)[O-]	14.3
COc1cccc(CNC(=O)c2cccc(NC3=NC4CS(=O)(=O)CC4S3)c2)c1 (centres unmarked)	15.3
COc1ccccc1CNc1ccc(C(=O)O)cc1	12.9
CCCCNS(=O)(=O)c1ccc2nc(SCC(=O)Nc3cccc(F)c3)[nH]c2c1	-10.2
COc1ccc(OCCOC(=O)CN2C(=O)NC3(CCCC3)C2=O)cc1	14.2
O=C(Cn1c(=O)cnc2ccccc21)Nc1cccc(S(=O)(=O)N2CCOCC2)c1	-21
O=C(Nc1ccc(N2CCOCC2)c(Cl)c1)c1ccc2c(c1)OCCO2	-0.379
O=C(Nc1cc(S(=O)(=O)N2CCCCC2)ccc1Cl)c1ccccc1NS(=O)(=O)c1ccc(F)cc1	16.2
Cc1ccc(S(=O)(=O)NCCOc2nc(N3CCOCC3)nc(N3CCOCC3)n2)cc1	-18.6
Fc1ccc(NCc2nnc(SCc3ccccc3)o2)cc1	-13.3
CC(C)CC(=O)Nc1ccc(Oc2ccc3c(c2)C(=O)NC3=O)cc1	10.9
Cc1cc(C(=O)NC2CC2)c2ccccc2n1	19.9
CN(C(=O)c1ccc2nc(N)sc2c1)c1ccccc1	15
COc1ccccc1NC(=O)CN1CCSc2ccccc21	2.2
O=S(=O)(Nc1cccc(-c2ccc(N3CCOCC3)nn2)c1)c1ccc(Cl)c(Cl)c1	-19
CC1CCN(c2nc3ccc(C(=O)N4CCN(Cc5ccccc5)CC4)cc3s2)CC1	-17.1
Cc1nc(NC(=O)CSC2=NCCS2)sc1C(=O)N(C)C	-12
Cc1cccnc1NC(=O)c1ccc(Cl)c(S(=O)(=O)N2CCCC2)c1	-9.58
O=c1c(Cl)c(Cl)cnn1Cc1ccc(F)cc1	3.54
Cc1nn(-c2nnc(C)c(=O)[nH]2)c(C)c1SCC(=O)Nc1ccc(C(C)C)cc1	8.99
COC(=O)c1ccc(C(=O)Nc2cc(Cl)ccc2Cl)cc1NC(=O)c1ccc(N(C)C)cc1	12.6
COc1ccc(C(=O)Nc2nc3ccccc3[nH]2)cc1S(=O)(=O)N1CCOCC1	-70.1
CC(C)CC(=O)NC(NC(=O)CC(C)C)c1cccc([N+](=O)[O-])c1	13.6

SMILES	hERG current change (%, negative = inhibition) at 10uM [%]
Cc1ccc(S(=O)(=O)NCCC(=O)OCC(=O)N(Cc2ccccc2)C(C)(C)C)cc1C	-9.35
CCCCCCSc1ccc([C@@H]2[C@@H]3C(=O)N(C)C(=O)[C@@H]3[C@]3(C(=O)OC)CCCCN23)cc1OC.O=C(O)C(F)(F)F	-5.95
O=C(NCc1ccccc1Cl)c1ccc2ccccc2n1	-1.85
CCOC(=O)CC(NC(=O)CCc1c(C)nc2nc(C)nn2c1C)c1ccc(C)cc1 (centres unmarked)	6.14
C=CCn1cc(Cl)c(=O)n(CC=C)c1=O	1.11
CSc1c2c(nc3ncnn13)CCC2	1.7
O=C(c1ccc2c(c1)OCCO2)N1CCN(S(=O)(=O)c2c(F)cccc2F)CC1	7.53
CC(C)CCn1nnnc1C(c1ccccc1)N1CCN(C)CC1 (centres unmarked)	-7.42
O=C(c1cc(Cl)nc2ccccc12)N1CCc2ccccc2C1	-19.5
S=c1[nH]nc(C2CCCCC2)n1/N=C/c1ccco1	6.41
COc1ccc(C(=O)NCCn2ccc3ccccc32)c(OC)c1	-12.5
CCOC(=O)C(N)CSC1CC(=O)N(c2ccc(OCC)cc2)C1=O.Cl (centres unmarked)	-3.53
COc1ccc(OC)c(/C=N/NC(=O)CC(=O)NCc2ccccc2)c1	1.66
CCOC(=O)CC/C(=N\NC(N)=O)c1ccc(OC)c(Cl)c1	-14.9
O=C(CSc1nc(-c2ccccc2)cs1)Nc1ccccc1[N+](=O)[O-]	19.4
O=C(Nc1ccncc1)C1CC(=O)N(c2ccc(F)cc2)C1 (centres unmarked)	9.63
Cc1ccc(S(=O)(=O)N2CCC(C(=O)OC(C)C(=O)N3CCOCC3)CC2)cc1 (centres unmarked)	-0.985
Cc1cc(NC(=O)c2cc(C(C)C)on2)no1	-5.74
CCc1noc(C)c1C(=O)Nc1cc(S(=O)(=O)N(CC)CC)ccc1N1CCCC1	-33.2
Cc1c(-c2ccccc2)[nH]n2c(=O)c3c(nc12)CCCC3	0.363
O=C(COc1ccccc1)Nc1ccc(CN2CCCCC2)cc1	-26.9
CCN(c1ccccc1)c1nc2nonc2nc1NCCO	14.3
CCOc1ccc(C(=O)NCC(=O)OCC(=O)Nc2cccc(S(=O)(=O)N3CCCC3)c2)cc1	-15.7

SMILES	hERG current change (%, negative = inhibition) at 10uM [%]
O=C(COC(=O)/C=C/c1ccc([N+](=O)[O-])cc1)NC(c1ccccc1)c1ccccc1	-18.4
COc1ccccc1N(C)S(=O)(=O)c1ccc(C(=O)NC(C)c2ccccc2)cc1 (centres unmarked)	-43.7
CC(C(=O)Nc1ccccc1-c1ccccc1)N1CCN(C(=O)c2ccccc2)CC1 (centres unmarked)	-66.9
COc1ccc(C2=C(Nc3ccc(F)cc3)c3ccccc3C2=O)cc1	12.8
O=C(Nc1ccc(F)cc1)C1CCCCC1	-3.1
CCOc1cc(S(=O)(=O)Nc2ncn[nH]2)ccc1Br	14.4
NC(N)=Nc1nc2cc([N+](=O)[O-])ccc2o1	27.6
CCCCOC(=O)n1c(=S)oc2cc(Cl)ccc21	17.7
COc1cc(NC(=O)CN(C)S(=O)(=O)c2ccc3nc(C)sc3c2)cc(OC)c1	23.8
COc1cc(CNc2ccc3[nH]c(=O)[nH]c3c2)cc(Br)c1OCc1ccc(F)cc1	22.7
CCC1=Nc2cc(C(=O)N3CCC4(CC3)OCCO4)ccc2Sc2ccc(C)cc21	-7.16
CC(C)(C)c1ccc(-c2noc(CCC(=O)Nc3cccnc3)n2)cc1	6.82
COc1ccc(C(=O)COC(=O)c2cncc(Br)c2)cc1	1.2
O=C(CSc1ccc(Cl)cc1)NC(=O)NCc1ccco1	3.87
COc1cc(/C=N/NC(=O)C2c3ccccc3Oc3ccccc32)ccc1O	12.4
CN(C)S(=O)(=O)c1cc(NC(=O)CN2CCOCC2)ccc1Cl	17.7
Cc1ccsc1/C=N/NC(=O)C(O)c1ccccc1 (centres unmarked)	15.2
CN(C)CCCNC(=S)NCCNc1nc2cc3c(cc2cc1C#N)OCO3	-29.9
CCOC(=O)c1sc(NC(=O)C(CC)Sc2nnc3c4ccccc4n(CC)c3n2)nc1C (centres unmarked)	-59.4
O=C1CN(C(=O)COc2ccccc2F)c2ccccc2N1	-1.54
